Experimental findings from paper PMC2900302 are described below.

By UniProt entry, the sequences of proteins in these tests, tags left out.
UniProt O35185: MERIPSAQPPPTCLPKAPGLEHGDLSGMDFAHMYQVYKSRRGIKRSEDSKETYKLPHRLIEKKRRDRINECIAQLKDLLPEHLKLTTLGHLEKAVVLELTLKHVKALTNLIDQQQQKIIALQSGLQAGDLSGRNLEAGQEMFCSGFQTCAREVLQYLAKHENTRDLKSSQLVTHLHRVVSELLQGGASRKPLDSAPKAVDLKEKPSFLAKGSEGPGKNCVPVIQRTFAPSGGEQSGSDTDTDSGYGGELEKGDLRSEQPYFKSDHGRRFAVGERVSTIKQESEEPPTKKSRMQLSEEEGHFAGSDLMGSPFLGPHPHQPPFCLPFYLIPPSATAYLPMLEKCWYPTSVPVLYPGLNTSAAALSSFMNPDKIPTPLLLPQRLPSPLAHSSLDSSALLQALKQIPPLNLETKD

Experiment [1] addresses T1, FLAG-tagged Id4 (Inhibitor of DNA binding 4) (UniProt P41139).
T1 sequence: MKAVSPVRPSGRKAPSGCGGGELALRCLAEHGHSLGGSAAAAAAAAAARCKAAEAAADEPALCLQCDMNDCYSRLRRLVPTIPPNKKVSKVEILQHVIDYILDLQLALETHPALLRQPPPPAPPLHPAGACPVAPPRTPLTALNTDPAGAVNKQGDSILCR
Put plainly: co-IP; Cos7 cells co-transfected with FLAG-Id4 and one HA-tagged bHLH factor; extracts precipitated with anti-FLAG antibody and Protein G sepharose overnight at 4 C, washed with PBS; Western blot with anti-HA (Figure S4A).

Experiment [2] has as its target T1, FLAG-tagged Id4 (Inhibitor of DNA binding 4). As to the kind of experiment: co-IP; FLAG-Id4 and HA-Hey2 in 293FT cells, immunoprecipitation and Western blot (Figure 6A).
Experiment [3] deals with T2, recombinant glutathione S-transferase-tagged Id4 (UniProt P41139).
T2 sequence: T1 sequence
Put plainly: pull-down; GST-Id4 from E. coli crude extract held on glutathione sepharose beads (4 hr, 4 C), incubated with E. coli extract of Flag-Hey2 overnight at 4 C; Western blot with anti-Flag (Figure S4B); only the target purified.

Results are given in words; binding and its absence hold for the method and conditions named. In cells and extracts the contact can be indirect. Some results given as binding are weak or reduced against the parent protein; the word gives no strength. Where a sequence is shown, tags or fusion partners need not be part of it.

“HA-tagged Bhlhe40 (basic helix-loop-helix family member e40) (from UniProt O35185 1-411)”: the binding result in experiment [1] is given as “no binding”.

B1: HA-tagged Hes1 (protein, UniProt P35428 1-282)
chain: MPADIMEKNSSSPVAATPASVNTTPDKPKTASEHRKSSKPIMEKRRRARINESLSQLKTLILDALKKDSSRHSKLEKADILEMTVKHLRNLQRAQMTAALSTDPSVLGKYRAGFSECMNEVTRFLSTCEGVNTEVRTRLLGHLANCMTQINAMTYPGQAHPALQAPPPPPPSGPAGPQHAPFAPPPPPLVPIPGGAAPPPGSAPCKLGSQAGEAAKVFGGFQVVPAPDGQFAFLIPNGAFAHSGPVIPVYTSNSGTSVGPNAVSPSSGSSLTSDSMWRPWRN
On to B1, for which the binding entry in experiment [1] was “no binding”.

B2: human influenza hemagglutinin-tagged Hey2 (hairy/enhancer-of-split related with YRPW motif 2) (protein, UniProt Q9QUS4 1-339)
chain: MKRPCEETTSESDLDETIDVGSENNYPGHATSSVMRSNSPTTTSQIMARKKRRGIIEKRRRDRINNSLSELRRLVPTAFEKQGSAKLEKAEILQMTVDHLKMLQATGGKGYFDAHALATDFMSIGFRECLTEVARYLSSVEGLDPSDPLRVRLVSHLSTCASQREAAVMTSSMAHHHHPLHPHHWAAAFHHLPTALLQPNGLHTSESTPCRLSTSSEVPSAHGSALLTATFAHADSALRMPSGGTVAPCVPPLSTSLLSLSATVHAAAAAATAAAHSFPLSFAGAFPMLPSNAAAAAAVAAATAISPPLSVSAASSPQQTSTGTNNKPYQPWGTEVGAF
With B2, the binding entry in experiment [2] and in experiment [1] was “binds” in each case.

B3: recombinant FLAG-tagged Hey2 (protein, UniProt Q9QUS4 1-339)
chain: B2 chain
B3: the binding result in experiment [3] was “binds”.

B4: HA-tagged Hey1 (hairy/enhancer-of-split related with YRPW motif 1) (protein, UniProt Q9WV93 1-299)
chain: MKRAHPDYSSSDSELDETIEVEKESADENGNLSSALCSMSPTTSSQVLARKRRRGIIEKRRRDRINNSLSELRRLVPSAFEKQGSAKLEKAEILQMTVDHLKMLHTAGGKGYFDAHALAMDYRSLGFRECLAEVARYLSIIEGLDASDPLLVRLVSHLNNYASQREAASGAHGGLGHIPWGSAFGHHPHIAHPLLLPQNGHGNAGTAASPTEPHHQGRLASAHPEAPALRAPPSGGLGPVLPVVTSASKLSPPLLSSVASLSAFPFSFSSFHLLSPSTPTQAANLGKPYRPWGTEIGAF
Regarding B4, the binding result in experiment [1] is “no binding”.
